Source: PubChem BioAssay AID1346428 (National Center for Advancing Translational Sciences (NCATS), 2018)
The campaign covered roughly 48,000 compounds. About 1,200 (2.5%) were called active. About 2% were inconclusive and are not listed.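 The calls were made as follows: active = activation of at least 60% and not above a set upper limit (about 1 call in 100 departs from these limits); inconclusive = activation of 40% to 60%, or above that upper limit; inactive = activation under 40%.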 The list shows a part of the results.

Molecular target: Probable G-protein coupled receptor 32 (Homo sapiens) (UniProt O75388)
Assay: qHTS for Agonists of Human Resolvin D1 Receptor DRV1; also: 0% is about no effect
Details: CHO-K1 GPR32 beta-arrestin PathHunter luminescence, 90 min; at 76.9 µM; active compounds read high; zero percent set by DMSO-only wells
Method in brief: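 PathHunter beta-arrestin recruitment in CHO-K1 cells stably expressing ProLink-tagged GPR32. Cells were exposed to compound for 90 min at 37 C, then chemiluminescence was read after 1 h detection at ambient temperature; DMSO served as basal control.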

Chain of UniProt O75388 (O75388 whole entry, looked up): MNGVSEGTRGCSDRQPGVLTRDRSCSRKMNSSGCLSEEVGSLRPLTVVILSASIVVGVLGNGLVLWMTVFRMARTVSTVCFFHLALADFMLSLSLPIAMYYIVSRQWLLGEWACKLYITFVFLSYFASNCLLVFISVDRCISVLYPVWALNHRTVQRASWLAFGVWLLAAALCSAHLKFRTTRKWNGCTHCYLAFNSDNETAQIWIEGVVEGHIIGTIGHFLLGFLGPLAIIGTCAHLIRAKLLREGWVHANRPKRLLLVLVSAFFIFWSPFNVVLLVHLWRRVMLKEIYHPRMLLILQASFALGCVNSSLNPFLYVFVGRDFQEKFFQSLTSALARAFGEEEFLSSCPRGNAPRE

activation, inactive:
COc1cccc(NC(=O)Cn2c(=O)n(CCCCC(=O)NCc3ccccc3Cl)c(=O)c3ccccc32)c1 -0.0766%, CC1CCCCN1C(=O)CCS(=O)(=O)c1cc2c(cc1Cl)NC(=O)CO2 (stereo not drawn) 34.7%, COc1cccc(CNCCCSc2nnnn2C)c1OC -1.77%, CCc1ccccc1NC(=O)Cn1ccn(Cc2ccccc2)c(=O)c1=O -26.1%, COc1ccc(NC(=O)CCc2nnc3n(Cc4ccc(C)cc4)c(=O)c4ccccc4n23)cc1 -9.71%, Cc1cccc(C(=O)N2CCc3cc(CNS(=O)(=O)c4ccc(F)c(Cl)c4)ccc32)c1 -21%, CCS(=O)(=O)c1nc(S(=O)(=O)c2ccc(C)cc2)c(NC)s1 -5.07%, CC(=O)Nc1c(C)nn(-c2ccccc2)c1N1CCC(C(=O)Nc2ccccc2F)CC1 -14%, Cn1c2ccccc2c2cnn(CC(=O)NCCCN3CCN(c4ccccc4F)CC3)c(=O)c21 -6.66%, CCCCN1C[C@H](O)[C@@H](O)[C@H](O)[C@H]1CO -20.5%, O=C(Nc1ccccc1)N(Cc1cccc(Cl)c1)c1ccccn1 -10%, CC(=O)c1ccc(N2CCN(C(=O)Nc3ccc(C(C)C)cc3)CC2)cc1 29.8%, COc1ccc(CCNC(=O)c2ccc3c(c2)ncn3-c2ccc(C(C)C)cc2)cc1OC 0.839%, CC(C)c1ccc2occ(CC(=O)N(Cc3ccc(F)cc3)C3CCS(=O)(=O)C3)c2c1 (stereo not drawn) -10.4%, COc1ccc(NC(=O)c2ccco2)cc1NC(=O)c1c(OC)cccc1OC -10.5%, COc1ccccc1CNC(=O)c1cc2c(s1)-c1ccc(Cl)cc1SC2 6.45%, Cc1ccccc1CNC(=O)CSc1nnc(C)c2c(C)n(-c3ccccc3)nc12 7.55%, Cc1ccc(S(=O)(=O)n2nc(C)c(S(=O)(=O)N3CCCCCC3)c2C)cc1C -8.52%, Cc1ccn2c(Nc3ccc4c(c3)OCCO4)c(-c3ccccc3O)nc2c1 -10.7%, CCCCOc1ccc(C2C(C(=O)Nc3ccccc3OC)=C(C)Nc3nnnn32)cc1OC (stereo not drawn) -1.86%, CC(=O)N1CCCc2cc(S(=O)(=O)N3CCC(C(=O)Nc4ccc(C)cc4Cl)CC3)ccc21 -2.74%, CCOc1cccc(CC(=O)N2CCc3c([nH]c4ccc(OC)cc34)C2c2ccc(F)cc2)c1OCC (stereo not drawn) -19.7%

activation, active:
COc1ccc(NS(=O)(=O)c2ccc3[nH]c4c(c3c2)CCCCC4)cc1 73.6%
